Results published in PubChem BioAssay AID624417 (National Center for Advancing Translational Sciences (NCATS), 2012).
The campaign covered roughly 410,000 compounds. About 6,400 (1.6%) were called active. This list was built around the results that the source calls inconclusive (neither active nor inactive); the mix of calls is not that of the screen. Calls follow the shape of the dose curve; as a rule, active = well fitted inhibition curve with a large enough effect; inconclusive = small, poorly fitted or top-dose-only effect; inactive = no such curve, though single readings can be large or run the other way. No potency is given beside an inconclusive call; the fits are too rough.

Target: Glucagon-like peptide 1 receptor (Homo sapiens) (UniProt P43220)
Chain of UniProt P43220 (P43220 whole entry, looked up): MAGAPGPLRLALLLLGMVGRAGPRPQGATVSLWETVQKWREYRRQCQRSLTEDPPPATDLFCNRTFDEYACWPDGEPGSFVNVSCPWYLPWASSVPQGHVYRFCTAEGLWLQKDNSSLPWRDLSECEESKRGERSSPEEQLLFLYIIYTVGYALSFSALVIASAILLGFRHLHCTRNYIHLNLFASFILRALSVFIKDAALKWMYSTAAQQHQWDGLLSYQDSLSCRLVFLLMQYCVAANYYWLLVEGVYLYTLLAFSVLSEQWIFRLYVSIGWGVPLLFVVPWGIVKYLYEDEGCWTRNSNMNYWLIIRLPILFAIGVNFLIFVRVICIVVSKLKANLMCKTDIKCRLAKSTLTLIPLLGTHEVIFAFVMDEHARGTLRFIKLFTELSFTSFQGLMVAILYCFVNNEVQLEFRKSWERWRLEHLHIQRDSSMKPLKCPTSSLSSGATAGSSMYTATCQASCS
Experiment: qHTS of GLP-1 Receptor Inverse Agonists (Inhibition Mode); also: nearly all actives have a fitted effect of over 55% in size
Conditions: HEK293 GLP-1R CRE-luciferase, luminescence, 24 h, GLP-1R form is constitutively active; activity change, negative = inhibition: at 38.3 µM (top of the series) unless noted
Summary of the method: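 Inverse agonists were sought by their lowering of basal cAMP reporter luciferase output in HEK293 cells stably carrying constitutively active human GLP-1R, after 24 h compound treatment.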
% is scaled to controls: 0 for no effect and ±100 for the full control effect; potency is read from the fitted curve at half-maximal effect; tags tell the direction and shape of the fitted curve.

SMILES	Potency	activity change, negative = inhibition
N#Cc1ccccc1CN1C(=O)S/C(=C/c2cccn2-c2cccc(C(=O)O)c2)C1=O	inconclusive [inhibitor, partial curve]	
Fc1ccc(C(c2nnnn2Cc2ccccc2)N2CCSCC2)cc1 (centres undefined)	inconclusive [inhibitor, single point]	
COc1ccc(CN(Cc2cccn2C)S(=O)(=O)c2ccccc2)cc1	inconclusive [inhibitor, partial curve, poor fit]	
CCS(=O)(=O)c1ncc(Cl)c(C(=O)N2CCN(c3cccc(Cl)c3)CC2)n1	inconclusive [inhibitor, partial curve, poor fit]	
Cc1ccc(NC(=S)NC(=O)c2cccs2)cc1F	inconclusive [inhibitor, single point]	
CN(C)CCN(Cc1ccco1)C(=O)c1oc2ccccc2c1NC(=O)COc1ccccc1	inconclusive [inhibitor, single point]	
COc1ccc(C2=NN(c3ccc(C=O)cc3)C(c3ccccc3)C2)cc1 (centres undefined)	active: 10 µM	
CCOc1ccccc1CN1CCN(Cc2cc(=O)c3ccccc3[nH]2)CC1CCO (centres undefined)	inconclusive [inhibitor, partial curve]	
O=C(O)c1cccc(N2CCCC2)c1		inactive: 7.37%
CCCCn1nnnc1SCC(=O)c1ccc(C)c(C)c1	inconclusive [inhibitor, partial curve, poor fit]	
COc1ccc(NC(C)C(=O)N/N=C/c2ccccc2OCc2cccc(Br)c2)cc1 (centres undefined)	inconclusive [inhibitor, partial curve, poor fit]	
COc1cccc(/C=N/NC(=O)c2cc3c(OC)cccc3[nH]2)c1O	inconclusive [inhibitor, full curve, poor fit]	
Cc1ccc(C(=O)N2C(CC(=O)Nc3ccc(Cl)cc3)C(=O)NC3CCCCC32)cc1 (centres undefined)	inconclusive [inhibitor, partial curve, poor fit]	
Cc1oc(-c2ccc(Cl)cc2)nc1CS(=O)CC(=O)NCCN1CCCCCC1 (centres undefined)	inconclusive [inhibitor, partial curve, poor fit]	
Cc1ccc(C(CC(=O)N2CCCCC2)c2ccccc2)c(O)c1C (centres undefined)	inconclusive [inhibitor, single point]	
Cc1ccc(NC(=O)c2ncn(CC(=O)NCc3ccc4[nH]ccc4c3)n2)cc1C		inactive: -26.3%
CCOc1ccccc1C=C1SC(=S)NC1=O	inconclusive [inhibitor, partial curve, poor fit]	
CCCSc1nsc(NC(=O)Nc2ccc(F)cc2F)n1	inconclusive [inhibitor, full curve, poor fit]	
Oc1cccc2ccc(/C=C/c3ccccc3Cl)nc12		inactive: -3.25%
CC1CCN(Cc2c(C(=O)N3CCc4ccccc4C3)nc3ccc(Cl)cn23)CC1	inconclusive [inhibitor, partial curve, poor fit]	

SMILES	Potency	activity change, negative = inhibition
CC(C)C(=O)O/N=C(\N)c1ccc(Oc2ccc(Cl)cc2)c([N+](=O)[O-])c1	inconclusive [inhibitor, partial curve, poor fit]	
CN1OC[C@@H]2CN(Cc3ccccc3)[C@H](c3ccc(N4CCCCC4)cc3)C[C@@H]21	inconclusive [inhibitor, partial curve, poor fit]	
Clc1ccc(CN=C(Nc2ccccc2)NC2CCCCC2)cc1	inconclusive [inhibitor, partial curve, poor fit]	
Cc1nc2c(C(=O)NCCc3ccccc3)cnn2c(C)c1Cc1c(F)cccc1Cl		inactive: 27.9%
CC(C)(C)OC(=O)N1CCC(c2c(C(=O)NCc3cccs3)cnn2-c2ccc(F)cc2F)CC1	inconclusive [inhibitor, single point]	
CC(C)(C)c1ccc(C(=O)N2CCNC(=O)C2CC(=O)Nc2ccc(F)cc2)cc1 (centres undefined)	inconclusive [inhibitor, single point]	
CCN1CCN(c2ccc(S(=O)(=O)N3CCCCC3)cc2NC(=O)c2cccc(OC(F)F)c2)CC1	inconclusive [inhibitor, single point]	
COc1ccc(C(=O)NC(=S)N2CCN(c3ccc([N+](=O)[O-])cc3)CC2)cc1	inconclusive [inhibitor, single point]	
CCN(c1ccccc1)c1nnc(NC(=O)Nc2cccc(Cl)c2C)s1		inactive: -18.5%
COC(=O)c1ccc(C(=O)NC2CCCc3c2cnn3-c2ccccc2F)nc1 (centres undefined)	inconclusive [inhibitor, full curve, poor fit]	
Nc1c2c(nc3sc4c(c13)CCCC4)-c1ccccc1CC2	inconclusive [inhibitor, partial curve, poor fit]	
O=C(/C=C/c1ccccc1)Nc1ccc(C(=O)N2CCCCC2)cc1	inconclusive [inhibitor, partial curve, poor fit]	
Cc1ccc(C(=O)Nc2nc(C)c(C(=O)Nc3ccc4c(c3)CCC4)s2)cc1	inconclusive [inhibitor, full curve, poor fit]	
C/C(=N/NC(=O)c1ccc(-c2ccccc2)cc1)c1cc(O)cc(O)c1	inconclusive [inhibitor, partial curve, poor fit]	
Cc1cccc(-c2c3c(=O)n(C)c(=O)n(C)c3cn2-c2cc(N)c(Cl)cc2Cl)c1	inconclusive [inhibitor, single point]	
Cc1ccc(C(=O)N2CCN(c3ccc(C(F)(F)F)cn3)CC2)c(C)c1	inconclusive [inhibitor, partial curve, poor fit]	
C=CCNC1=C(Cl)C(=O)N(Cc2ccccc2)C1=O	inconclusive [inhibitor, single point]	
COc1cccc(/C=C/C(=O)Nc2ccc3c(c2)OCCO3)c1OC		inactive: 7.42% [at 0.307 µM]
Cc1ccccc1N=CC1=C(O)c2ccccc2C1=O		inactive: -32.8%
